Drawing on PubChem BioAssay (NCATS), this text covers Potency for 13 compounds.

SMILES strings stand for the structures. Results filed as inconclusive are left out. Calls follow the shape of the dose curve; as a rule, active = well fitted curve in the direction sought with a large enough effect; inconclusive = small, poorly fitted or top-dose-only effect, or another doubt; inactive = no such curve, though single readings can be large; an effect the other way counts as inactive or inconclusive. The source holds several records for some structures; these can differ, active in one and inactive in another. For part of its entries the source gives two or more results. This list holds those alone. An entry can have further records. The records of an entry repeat one measurement across runs, samples, wells, individuals or studies. Brackets tell where a record comes from. The letters are not those of the source and start again with each entry.
Potency is read from the fitted curve at half-maximal effect.

The nature of the first test: qHTS of pediatric cancer cell lines to identify multiple opportunities for drug repurposing: Primary screen for NB1643 cells (AID 1347099). Also: nearly all actives have a fitted effect of over 50% in size. The note with it: NB1643 neuroblastoma viability, CellTiter-Glo luminescence, 48 h; series mostly up to 46 µM. Background: qHTS replaces the single test concentration by a dilution series.
With `CCC1(c2ccccc2)C(=O)NCNC1=O`, the Potency entry is “active: 8.33 µM [sample A] and inactive [sample B]”.
Take `CC1COc2c(N3CCN(C)CC3)c(F)cc3c(=O)c(C(=O)O)cn1c23` (stereo unspecified): the Potency result is “inactive [sample A] and active: 4.69 µM [sample B]”.
Consider `CC(C)C(=O)Nc1ccc([N+](=O)[O-])c(C(F)(F)F)c1`, for which the Potency entry was “inactive [sample A] and active: 5.9 µM [sample B]”.
Same read-out and setting: for `COc1ccc2c(c1)c(CC(=O)O)c(C)n2C(=O)c1ccc(Cl)cc1` the value was “inactive [sample A] and active: 16.6 µM [sample B]”; for `CN(C)CCCN1c2ccccc2CCc2ccc(Cl)cc21`, “active: 1.66 µM [sample A] and inactive [sample B]”.
Consider `CC(C(=O)O)c1cccc(C(=O)c2ccccc2)c1` (stereo unspecified), for which the Potency result was “inactive [sample A] and active: 18.7 µM [sample B]”.
Consider `CN(C)CCOC(c1ccccc1)c1ccccc1`, for which the Potency entry was “active: 16.6 µM [sample A] and inactive [sample B]”.
Turning to `CC(C)NCC(O)c1ccc(O)c(O)c1` (stereo unspecified), the Potency result is “active: 1.32 µM [sample A] and inactive [sample B]”.
For `CC12CC3CC(C)(C1)CC(N)(C3)C2`, the Potency result was “active: 10.5 µM [sample A] and inactive [sample B]”.

The next test can be described thus: qHTS of pediatric cancer cell lines to identify multiple opportunities for drug repurposing: Primary screen for LAN-5 cells (AID 1347100). The note with it: LAN-5 neuroblastoma viability, CellTiter-Glo luminescence, 48 h; series mostly up to 46 µM. The method in brief:
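Cells (500-1,000/well) in growth media were settled 5 h at 37 degrees C, then given compounds for 48 h. Viability was read as CellTiter-Glo luminescence. Primary runs used MIPE at 11 points (0.78 nM-46 µM) and NPC at 8 points (0.59 nM-46 µM); follow-ups used 11 points.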
As for `CC(C)(Oc1ccc(C2CC2(Cl)Cl)cc1)C(=O)O` (stereo unspecified), the Potency result was “active: 17.1 µM [sample A] and inactive [sample B]”.
Consider `CN(C)CCCN1c2ccccc2CCc2ccc(Cl)cc21`, for which the Potency entry was “active: 9.35 µM [sample A] and inactive [sample B]”.
Regarding `Cn1cnc2c1c(=O)[nH]c(=O)n2C`, the Potency result was “inactive [sample A] and active: 26.4 µM [sample B]”.
In the case of `CC(C)NCC(O)c1ccc(O)c(O)c1` (stereo unspecified), the Potency entry is “active: 6.62 µM [sample A] and inactive [sample B]”.

The nature of another test: qHTS of pediatric cancer cell lines to identify multiple opportunities for drug repurposing: Primary screen for BT-12 cells (AID 1347101). Also: nearly all actives have a fitted effect of over 25% in size. As to conditions: BT-12 viability, CellTiter-Glo luminescence, 48 h; series mostly up to 57.3 µM. The essentials: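 Cells (500-1,000/well) rested 5 h, then received compounds for 48 h; metabolically active cells were measured by CellTiter-Glo luminescence. Final concentrations spanned up to 46 µM (MIPE, 11-point) or 0.59 nM-46 µM (NPC, 8-point) in primary screens, 11-point in follow-ups.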
Turning to `NC(=O)NO`, the Potency result is “inactive [sample A] and active: 1.72 µM [sample B]”.
On the same count and under the same terms, the result for `Cn1cnc2c1c(=O)[nH]c(=O)n2C` reads “inactive [sample A] and active: 24.3 µM [sample B]”; that for `Nc1nc2c(ncn2COC(CO)CO)c(=O)[nH]1`, “active: 24.3 µM [sample A] and inactive [sample B]”.
